In PubChem BioAssay AID743279 (National Center for Advancing Translational Sciences (NCATS), 2014):
Out of some 360,000 compounds screened, about 17,000 (4.7%) were called active. The inconclusive results got no clear call from the source; some entries with a clear call stand among them for comparison. Rule as the data show it: active = activity change below about -50%; inconclusive = mostly about -30% to -49%; inactive = weaker than that.

Test: qHTS for Inhibitors of Inflammasome Signaling: IL-1-beta AlphaLISA Primary Screen
Conditions: THP-1 LPS/ATP IL-1B secretion, 16 h; at 57.5 µM, stronger effect = lower value
Summary of the method: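 Secreted IL-1B measured by AlphaLISA bead assay after 16 h compound exposure of THP-1 cells; compounds (final up to 57.5 uM) added 1 h before LPS (250 ng/mL) and ATP (1.25 mM) stimulation; lower signal means less secretion.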
% is scaled to controls: 0 for no effect and ±100 for the full control effect.

| SMILES | activity change |
| --- | --- |
| CCOC(CCn1c(SCc2ccc([N+](=O)[O-])cc2)nc2ccccc2c1=O)OCC | inconclusive: -33.1% |
| CCOC(=O)c1sc(Nc2cccc(Cl)c2)nc1C | active: -87% |
| Cc1cccc(NC(c2ccc(C)s2)c2ccc3ccc(C)nc3c2O)n1 (stereo not drawn) | active: -73.7% |
| O=C(NC1CCCCC1)C(c1ccc2ncccc2c1)N(Cc1ccccc1)C(=O)c1cccs1 (stereo not drawn) | active: -68.6% |
| O=C(NC(=S)Nc1ccc(N2CCCCC2)cc1)c1cccs1 | inconclusive: -45.9% |
| COc1ccc(CC(N)c2csc(NC(=O)NCCc3ccc(OC)c(OC)c3)n2)cc1 (stereo not drawn) | inconclusive: -32.3% |
| CCCn1c2ccccc2c2cnn(CC(=O)NCCCN3CCN(c4ccccc4)CC3)c(=O)c21 | inconclusive: -46.9% |
| CC(=O)OCCCNc1cc(Sc2nc3ccccc3s2)c2nonc2c1[N+](=O)[O-] | inconclusive: -30.5% |
| O=C(C[C@H]1C[C@H](C(=O)N2CCOCC2)[C@@]2(CCC3CCCC3)c3[nH]c4ccc(Cl)cc4c3CCN2C1=O)NCCCn1ccnc1 | active: -58.7% |
| CC(C)NCc1cc(Br)ccc1OCc1ccccc1 | inconclusive: -30.5% |
| CCOC(=O)C1CCN(C(=O)c2ccc(OCC(=O)N3CCOCC3)c(OC)c2)CC1 | inactive: -2.03% |
| COc1cccc(-c2csc(N3CCN(CC(=O)Nc4ccc5c(c4)OCO5)CC3)n2)c1 | inconclusive: -36.9% |
| N#CC1=C(N)NC(SCC(=O)Nc2ccc(Br)cc2)=C(C#N)C12CCCCC2 | inconclusive: -30.5% |
| CN(CC(=O)Nc1ccccc1F)CC(=O)Nc1ccc(F)c(F)c1F | inactive: 0.415% |
| C[C@@H]1CN([C@@H](C)CO)C(=O)CCCn2nncc2CO[C@H]1CN(C)S(=O)(=O)c1ccccc1C#N | inactive: 30.5% |
| COC(=O)c1cc2sc(Cl)cc2n1CC(=O)N1CCCc2ccccc21 | inconclusive: -36.8% |
| O=C(OCC(=O)N1CCCC1=O)c1nc(Cl)c(Cl)c(Cl)c1Cl | active: -95% |
| Cc1nnc(SCC(=O)c2c(N)n(C)c(=O)n(C)c2=O)n1Cc1ccccc1 | active: -53.7% |
| COc1cc(Cl)c(C)cc1NC(=O)CN(C)C1CCS(=O)(=O)C1 (stereo not drawn) | inactive: 18.7% |
| O=C(c1cc(N2C(=O)C3C4CCC(C4)C3C2=O)ccc1Cl)N1CCCCCC1 (stereo not drawn) | inactive: 21.9% |
| S=c1nc(-c2cc(Cl)ccc2Cl)[nH][nH]1 | inactive: -7.53% |
| O=C(CNS(=O)(=O)c1cccc(F)c1)OCC(=O)N1CCCC1=O | inactive: 1.75% |
| c1csc(C2=Nn3c(nnc3-c3ccncc3)SC2)c1 | active: -75.4% |
